# Results from PubChem BioAssay AID2147 (National Center for Advancing Translational Sciences (NCATS), 2009).
# The campaign covered roughly 230,000 compounds. About 3,600 (1.6%) were called active. The shares of active, inactive and inconclusive entries below differ from those in the screen. Calls follow the shape of the dose curve; as a rule, active = well fitted inhibition curve with a large enough effect (not every such curve was filed as active); inconclusive = small, poorly fitted or top-dose-only effect, or another doubt; inactive = no such curve, though single readings can be large or run the other way. Potencies beside an inconclusive call are fits to weak or partial responses and may not hold up.
# Target: Lysine-specific demethylase 4E (Homo sapiens) (UniProt B2RXH2)
# Sequence of UniProt B2RXH2 (B2RXH2 whole entry, looked up, the tested form may be a part): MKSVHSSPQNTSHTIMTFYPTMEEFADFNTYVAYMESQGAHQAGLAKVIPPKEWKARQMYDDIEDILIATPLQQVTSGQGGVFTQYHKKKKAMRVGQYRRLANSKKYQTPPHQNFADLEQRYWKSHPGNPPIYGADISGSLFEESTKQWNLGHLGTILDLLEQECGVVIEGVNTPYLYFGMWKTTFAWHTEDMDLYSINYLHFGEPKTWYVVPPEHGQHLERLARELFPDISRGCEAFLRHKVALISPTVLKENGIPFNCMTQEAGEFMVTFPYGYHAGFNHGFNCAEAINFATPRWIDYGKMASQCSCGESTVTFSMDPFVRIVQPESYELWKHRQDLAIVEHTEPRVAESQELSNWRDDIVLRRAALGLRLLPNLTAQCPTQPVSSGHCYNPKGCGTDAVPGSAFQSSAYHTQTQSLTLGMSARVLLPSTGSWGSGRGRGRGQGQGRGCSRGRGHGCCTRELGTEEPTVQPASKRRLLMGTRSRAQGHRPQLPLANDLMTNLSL
# Test: qHTS Assay for Inhibitors of Human Jumonji Domain Containing 2E (JMJD2E)
# Conditions: JMJD2E catalytic domain, FDH-coupled NADH fluorescence (FDH is formaldehyde dehydrogenase); series mostly up to 57.1 µM
# Also: nearly all actives have a fitted effect of over 50% in size.
# Potency is read from the fitted curve at half-maximal effect; tags tell the direction and shape of the fitted curve.
row,Compound,Potency
1,N#CC1=C(N)Oc2cc(N)ccc2C1C1CC=CCC1 (stereo not given),"inconclusive: 25.1 µM [inhibitor, partial curve]"
2,Cc1c(C)n(CC(O)CN(CCO)CCO)c2ccccc12 (stereo not given),"inconclusive: 31.6 µM [inhibitor, partial curve]"
3,Cc1cc(C)cc(-n2c(C)c3c(C)nnc(C)c3c2C)c1,"inconclusive: 25.1 µM [inhibitor, partial curve]"
4,Cc1ccccc1OCC(O)CO (stereo not given),"inconclusive: 25.1 µM [inhibitor, single point]"
5,Cc1nn(-c2ccccc2)c(C)c1/C=N/N1CCN(c2ccccc2)CC1,inactive
6,CCOc1ccc(S(=O)(=O)NCCOC)cc1C,inactive
7,CCOC(=O)C1CCN(C(=O)CSc2cc(=O)n(C)c3ccccc23)CC1,"inconclusive: 31.6 µM [inhibitor, partial curve]"
8,CN(c1nc2ccccc2n2c(C3CC3)nnc12)S(=O)(=O)c1ccccc1,inactive
9,CCC(=O)Nc1nc2nc(-c3ccccc3)cc(-c3ccccc3)n2n1,"inconclusive: 3.98 µM [inhibitor, full curve]"
10,CC1CCN(C(=O)C2CCN(S(=O)(=O)c3cccnc3)CC2)CC1,inactive
11,CC(C)n1c(CCC(=O)O)ccc1-c1ccccc1,"inconclusive: 35.5 µM [inhibitor, partial curve]"
12,CCCCCCCCCCCCCCCCCCc1ccc(C(=O)/C=C\C(=O)O)cc1,inactive
13,C/C(=C\C(=O)c1ccc(Br)cc1)Nc1ccc(Cl)cc1,inactive
14,Cc1ccc(-c2nn(-c3ccccc3)cc2/C=C/C(=O)OCC(=O)NC2CC2)o1,"inconclusive: 31.6 µM [inhibitor, partial curve]"
15,Cc1cc(C)n(C(=O)c2sc3cc(F)ccc3c2Cl)n1,"inconclusive: 6.31 µM [inhibitor, full curve, poor fit]"
16,Cc1cc(C(=O)c2ccc(Cl)cc2)c(NC(=O)CCl)s1,inactive
17,Cc1cccc(NC(=O)CC2SC(=O)N(c3ccccc3)C2=O)c1 (stereo not given),inactive
18,O=C(Cc1coc2cc3c(cc12)CCC3)OCc1cc(=O)n2c(n1)sc1ccccc12,"inconclusive: 35.5 µM [inhibitor, single point]"
19,Cc1ccc(/C=C2\SC(=S)N(c3cccnc3)C2=O)cc1,inactive
20,COC(=O)N/N=C/c1ccc(-c2ccc(C)c(Cl)c2)o1,"inconclusive: 31.6 µM [inhibitor, single point]"
21,O=C(O)CCCN1C(=O)/C(=C\c2ccco2)SC1=S,"inconclusive: 20 µM [inhibitor, partial curve]"
22,CCc1ccc(OCC(=O)c2c(O)c3ccccc3oc2=O)cc1,"inconclusive: 39.8 µM [inhibitor, single point]"
23,COc1ccc(NC(=O)C(C)NS(=O)(=O)c2ccccc2)cc1Cl (stereo not given),inactive
24,CN1CCc2c(C#N)c(N3CCOCC3)nc(NCC3CCCO3)c2C1 (stereo not given),"inconclusive: 12.6 µM [inhibitor, partial curve]"

row,Compound,Potency
1,O=S(=O)(c1cccs1)N1CN(C2CCCC2)c2nc3ccccc3nc21,"inconclusive: 22.4 µM [inhibitor, partial curve]"
2,Cc1cc(=O)n2c3ccccc3n(CC(O)CN3CCN(CCO)CC3)c2c1C#N (stereo not given),"inconclusive: 31.6 µM [inhibitor, partial curve]"
3,NCC1O[C@@H](O[C@H]2C(O)C(O[C@@H]3C(O[C@H]4OC(CO)C(O)C(O)C4N)C(N)CC(N)[C@H]3O)O[C@@H]2CO)C(N)C(O)C1O (stereo not given in full),inactive
4,CCOC(=O)c1nn(-c2cccc(C)c2)c2nnc(Cc3ccc(C)cc3)c(=O)n12,inactive
5,CCOc1ccc(NC(=S)N2CCN(c3ccc(N4CCOCC4)nn3)CC2)cc1,"inconclusive: 25.1 µM [inhibitor, partial curve]"
6,O=C(/C=C/c1ccco1)N/C(=C\c1ccco1)C(=O)NCCc1nc2ccccc2[nH]1,"inconclusive: 25.1 µM [inhibitor, single point]"
7,Cc1ccc(C(=O)N2CCN(c3ncccn3)CC2)cc1S(=O)(=O)N1CCCCC1,inactive
8,Cc1ccc(C)c(OCC(=O)Nc2ccc(S(=O)(=O)Nc3ccccn3)cc2)c1C,"inconclusive: 35.5 µM [inhibitor, single point]"
9,CN1CCc2c(sc(NC(=O)c3cc4cc([N+](=O)[O-])ccc4s3)c2C(N)=O)C1,inactive
10,Brc1ccc(OCc2cn3ccccc3n2)cc1,"inconclusive: 35.5 µM [inhibitor, partial curve]"
11,Cc1oc(-c2ccccc2)nc1CC(=O)O,"inconclusive: 25.1 µM [inhibitor, single point]"
12,COC(=O)c1ccccc1NC(=S)NC(=O)c1ccc(C)cc1,"inconclusive: 22.4 µM [inhibitor, partial curve]"
13,O=C(CN1CCCCC1)N1CCCc2c1c(=O)oc1ccc(OCc3ccccc3)cc21,"inconclusive: 35.5 µM [inhibitor, partial curve]"
14,COC(=O)c1cc(C(=O)Nc2ccc(S(N)(=O)=O)cc2)cc([N+](=O)[O-])c1,inactive
15,Cc1ccc(-n2nc(C)c3c2OC(N)=C(C#N)C3c2ccoc2)cc1 (stereo not given),active: 10 µM
16,Cn1c(=O)c2[nH]c(=O)cnc2n(C)c1=S,"inconclusive: 25.1 µM [inhibitor, single point]"
17,O=C(CCCl)Nc1ccc(S(=O)(=O)NCc2ccco2)cc1,inactive
18,CC(=O)NS(=O)(=O)c1ccc(NC(=O)CN2C(=O)C3C4C=CC(C4)C3C2=O)cc1 (stereo not given),inactive
19,Cc1ccc(NC(=O)CSc2nnc(NC(=O)c3ccc(S(=O)(=O)N4CCOCC4)cc3)s2)cc1,"inconclusive: 35.5 µM [inhibitor, single point]"
20,CCOC(=O)c1nn(-c2ccccc2C)c(=O)c2c(N)scc12,"inconclusive: 2 µM [inhibitor, partial curve]"
21,O=C(O)Cc1sc(-c2ccccc2Cl)nc1-c1ccccc1,"inconclusive: 39.8 µM [inhibitor, single point]"
22,COc1cc(OC)cc(C(=O)Nc2ccccc2-c2nnn(CC(N)=O)n2)c1,"inconclusive: 35.5 µM [inhibitor, single point]"
23,COc1ccc2[nH]c(=O)c(CN(CCc3cccc(C)c3)C(C)=O)cc2c1,"inconclusive: 28.2 µM [inhibitor, partial curve]"
24,O=c1cc2c(=O)oc3cc(O)c(O)oc3c2c(O)c1O,active: 3.98 µM

row,Compound,Potency
1,O=C(O)CCCn1nc(C(F)(F)F)c2c1CCCCC2,inactive
2,CCCCC(C(=O)NC(C)(C)C)N(Cc1ccco1)C(=O)c1snc(C(N)=O)c1N (stereo not given),"inconclusive: 22.4 µM [inhibitor, single point]"
3,COCCNC(=O)c1c[nH]c2cc(OC)c(OC)cc2c1=O,"inconclusive: 22.4 µM [inhibitor, single point]"
4,COc1ccccc1NS(=O)(=O)c1ccc(Cl)c(NC(=O)C(C)N2C(=O)c3ccccc3C2=O)c1 (stereo not given),inactive
5,COc1ccc(C2NC(=O)c3ccccc3O2)cc1OC (stereo not given),"inconclusive: 28.2 µM [inhibitor, partial curve]"
6,Cc1cc(C)c2c(=O)[nH]c(SCC(=O)NCCc3ccccc3)nc2n1,"inconclusive: 35.5 µM [inhibitor, single point]"
7,COc1cc(C(Nc2ccccn2)c2ccc3ccc(C)nc3c2O)cc(OC)c1O (stereo not given),active: 22.4 µM
8,CC(C)CNC(=O)c1ccccc1NC(=O)c1ccc(CSc2ccccc2)cc1,"inconclusive: 35.5 µM [inhibitor, single point]"
9,NNc1ncnc2scc(-c3ccc(Cl)cc3)c12,"inconclusive: 22.4 µM [inhibitor, single point]"
10,Cc1ccc(C(=O)c2cn[nH]c2-c2cc(Cl)ccc2O)cc1,"inconclusive: 31.6 µM [inhibitor, single point]"
11,CCCCCc1ccc(OCCCC[n+]2ccccc2)c(CCCCC)c1,inactive
12,COC(=O)C1=C(C)N(Cc2cccnc2)C(=O)/C1=C\c1cccs1,"inconclusive: 39.8 µM [inhibitor, single point]"
13,Cc1cc(NC(=O)CSc2nc(-c3cccnc3)ccc2C#N)no1,"inconclusive: 25.1 µM [inhibitor, partial curve]"
14,Cc1ccc2cc(CCNC(=O)Cc3cccs3)c(=O)[nH]c2c1,"inconclusive: 39.8 µM [inhibitor, single point]"
15,COc1ccc(OC)c(/C=N/NC(=O)CCc2c(C)n[nH]c2C)c1,"inconclusive: 25.1 µM [inhibitor, partial curve]"
16,NC(=O)NC(=O)CSc1nc2sc(-c3ccccc3)cc2c(=O)n1-c1ccccc1,"inconclusive: 35.5 µM [inhibitor, single point]"
17,N#CC1=C(SCC(=O)c2cc3ccccc3oc2=O)NC(=O)C(C#N)C12CCCC2 (stereo not given),"inconclusive: 25.1 µM [inhibitor, partial curve]"
18,CCOc1ccc(CCNC(=O)CCC(=O)Nc2ccc3nc(N4CCN(C)CC4)cc(C)c3c2)cc1OCC,"inconclusive: 10 µM [inhibitor, partial curve]"
19,CN(c1nc2c(c(=O)n(C)c(=O)n2C)n1CC(=O)c1ccccc1)C1CCCCC1,inactive
20,COC(=O)c1ccccc1NC(=O)C1CCCN(c2nnc(-n3cccc3)s2)C1 (stereo not given),"inconclusive: 28.2 µM [inhibitor, single point]"
21,COc1ccccc1/C=C/C(=O)Nc1cccc(S(=O)(=O)NC2=NCCCCC2)c1,"inconclusive: 31.6 µM [inhibitor, single point]"
22,Cc1cc(C)[n+](-c2ccc(F)cc2)c2[nH]c(=O)[nH]c(=O)c12,"inconclusive: 28.2 µM [inhibitor, partial curve]"
